Experimental data published in patent EP4674868A1 (Jiangsu Hengrui Pharmaceuticals Co., Ltd., dated 2026).
Like-named read-outs stand apart in the source and are kept apart here. One block for each binder: values may come before it.

Columns and labels:
[1] = target: T1, human 4-1BB on the surface of HEK293 cells (HEK293-Hu4-1BB) (human, UniProt Q07011 24-255); test: cell-based or functional assay
[2] = target: T2, human CD40 on the surface of HEK293 cells (HEK293-HuCD40) (human, UniProt P25942 21-277); test: cell-based or functional assay
T2 sequence (P25942 21-277): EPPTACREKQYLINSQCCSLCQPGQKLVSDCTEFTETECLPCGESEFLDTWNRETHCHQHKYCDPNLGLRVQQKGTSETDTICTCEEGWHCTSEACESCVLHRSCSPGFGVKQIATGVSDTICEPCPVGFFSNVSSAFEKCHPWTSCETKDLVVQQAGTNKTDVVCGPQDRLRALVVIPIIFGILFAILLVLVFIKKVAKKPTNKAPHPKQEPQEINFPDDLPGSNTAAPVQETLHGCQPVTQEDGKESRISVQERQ

[3] = target: T3, human FAP on the surface of CHO-K1 cells (CHO-K1-HuFAP) (human, UniProt Q12884 1-760); test: FACS, CHO-K1-HuFAP cells
T3 construct: whole, on cells; also called CHO cell line overexpressing human FAP; FAP on the surface of CHO-K1-HuFAP cells

[4] = target: T2, human CD40 on the surface of HEK293 …; test: FACS, HEK293-HuCD40 cells
[5] = target: T1, human 4-1BB on the surface of HEK293 …; test: FACS, HEK293-Hu4-1BB cells
[6] = target: T1, human 4-1BB on the surface of HEK293 …; test: cell-based or functional assay; remark: listed apart in the source
[7] = target: T2, human CD40 on the surface of HEK293 …; test: cell-based or functional assay; remark: listed apart in the source
[8] = target: T3, human FAP on the surface of CHO-K1 …; test: FACS, CHO-K1-HuFAP cells; remark: listed apart in the source
[9] = target: T2, human CD40 on the surface of HEK293 …; test: FACS, HEK293-HuCD40 cells; remark: listed apart in the source
[10] = target: T1, human 4-1BB on the surface of HEK293 …; test: FACS, HEK293-Hu4-1BB cells; remark: listed apart in the source

T1 sequence (Q07011 24-255): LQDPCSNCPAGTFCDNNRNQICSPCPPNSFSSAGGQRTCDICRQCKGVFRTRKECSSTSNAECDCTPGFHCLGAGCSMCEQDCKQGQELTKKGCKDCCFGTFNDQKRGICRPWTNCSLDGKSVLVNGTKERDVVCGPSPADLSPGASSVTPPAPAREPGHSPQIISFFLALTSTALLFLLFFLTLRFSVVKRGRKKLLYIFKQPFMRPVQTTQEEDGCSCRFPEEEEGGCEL

B1: B21326101 (anti-FAP/4-1BB/CD40 trispecific antibody) (other)
heavy: QVQLQQSGVEVKKPGASVTVSCRASGYSFADHFIHWVRQAPGQGFQWMGWINPNRGVTHHAQDFQGRVAMTRDMSTDTVYMELTSLRSDDTAVYYCARDASLTARPYYFYGFDVWGQGTLVTVSS[human IgG1 constant region with changes not given here]GGGGSGGGGSQVQLVESGGGLVQPGGSLRLSCSASGFTFSSYAMSWVRQAPGKGLEWVSDINSGGESTFYEDSVKGRFTISRDNAKNTLYLQMNSLRAEDTAVYYCAKHPLTYTIATMNDYDYWGQGTLVTVSSGGGGSGGGGSEVQLVESGGGLVQPGGSLRLSCAASGFTFSRYGMKWVRQAPGKGLEWVSTINSHGDTTYYADSVKGRFTISRDNAKNSLYLQMNSLRAEDTAVYYCLRIDYSDYSSRGQGTLVTVSAA
light: DIQMTQSPSSVSASVGDRVTITCRASQGISSWLAWYQQKPGKAPKLLIYAASSLQSGVPSRFSGSGSGTDFTLTISSLQPEDFATYYCQQANSFPPAFGQGTKVEIKRTVAAPSVFIFPPSDEQLKSGTASVVCLLNNFYPREAKVQWKVDNALQSGNSQESVTEQDSKDSTYSLSSTLTLSKADYEKHKVYACEVTHQGLSSPVTKSFNRGEC
4-1BB/NF-κB luciferase reporter, CD40-crosslinked, EC50 [1]: 0.035 nM | 4-1BB/NF-κB luciferase reporter, CD40-crosslinked, Fold change in Emax [1]: 4.53 fold | 4-1BB/NF-κB luciferase reporter, FAP-crosslinked, EC50 [1]: 0.071 nM | 4-1BB/NF-κB luciferase reporter, FAP-crosslinked, Fold change in Emax [1]: 8.14 fold | 4-1BB/NF-κB luciferase reporter, uncrosslinked, Fold change in Emax [1]: 1.05 fold | CD40/NF-κB reporter (HEK-Blue CD40L), 4-1BB-crosslinked, EC50 [2]: 0.688 nM | CD40/NF-κB reporter (HEK-Blue CD40L), 4-1BB-crosslinked, Fold change in Emax [2]: 6.01 fold | CD40/NF-κB reporter (HEK-Blue CD40L), FAP-crosslinked, EC50 [2]: 0.095 nM | CD40/NF-κB reporter (HEK-Blue CD40L), FAP-crosslinked, Fold change in Emax [2]: 6.79 fold | CD40/NF-κB reporter (HEK-Blue CD40L), uncrosslinked, Fold change in Emax [2]: 5.06 fold | EC50 [3]: 0.72 nM | Maximum fluorescence value [3]: 65300 | EC50 [4]: 2.55 nM | Maximum fluorescence value [4]: 62300 | EC50 [5]: 0.19 nM | Maximum fluorescence value [5]: 10800

B3: B785503 (anti-FAP/4-1BB/CD40 trispecific antibody) (other)
heavy: QVQLQQSGVEVKKPGASVTVSCRASGYSFADHFIHWVRQAPGQGFQWMGWINPNRGVTHHAQDFQGRVAMTRDMSTDTVYMELTSLRSDDTAVYYCARDASLTARPYYFYGFDVWGQGTLVTVSS[human IgG1 constant region with changes not given here]GGGGSGGGGSEVQLVESGGGLVQPGGSLRLSCAASGFTFSRYGMKWVRQAPGKGLEWVSTINSHGDTTYYADSVKGRFTISRDNAKNSLYLQMNSLRAEDTAVYYCLRIDYSDYSSRGQGTLVTVSS
light: DIQMTQSPSSVSASVGDRVTITCRASQGISSWLAWYQQKPGKAPKLLIYAASSLQSGVPSRFSGSGSGTDFTLTISSLQPEDFATYYCQQANSFPPAFGQGTKVEIKRTVAAPSVFIFPPSDEQLKSGTASVVCLLNNFYPREAKVQWKVDNALQSGNSQESVTEQDSKDSTYSLSSTLTLSKADYEKHKVYACEVTHQGLSSPVTKSFNRGECGGGGSGGGGSQVQLVESGGGLVQPGGSLRLSCSASGFTFSSYAMSWVRQAPGKGLEWVSDINSGGESTFYEDSVKGRFTISRDNAKNTLYLQMNSLRAEDTAVYYCAKHPLTFTIATMNDYDYWGQGTLVTVSS
notes: Trispecific: Ab10 IgG1 (L234A, L235A); A297V3 on heavy chain C-termini, C5V2-YTI on light chain C-termini
4-1BB/NF-κB luciferase reporter, CD40-crosslinked, EC50 [6]: 0.03 nM | 4-1BB/NF-κB luciferase reporter, CD40-crosslinked, Fold change in Emax [6]: 9.8 fold | 4-1BB/NF-κB luciferase reporter, FAP-crosslinked, EC50 [6]: 0.02 nM | 4-1BB/NF-κB luciferase reporter, FAP-crosslinked, Fold change in Emax [6]: 13.1 fold | 4-1BB/NF-κB luciferase reporter, uncrosslinked, Fold change in Emax [6]: 8.42 fold | CD40/NF-κB reporter (HEK-Blue CD40L), 4-1BB-crosslinked, EC50 [7]: 0.015 nM | CD40/NF-κB reporter (HEK-Blue CD40L), 4-1BB-crosslinked, Fold change in Emax [7]: 9.64 fold | CD40/NF-κB reporter (HEK-Blue CD40L), FAP-crosslinked, EC50 [7]: 0.09 nM | CD40/NF-κB reporter (HEK-Blue CD40L), FAP-crosslinked, Fold change in Emax [7]: 9.47 fold | CD40/NF-κB reporter (HEK-Blue CD40L), uncrosslinked, Fold change in Emax [7]: 6.67 fold | EC50 [8]: 1.78 nM | Maximum fluorescence value [8]: 108000 | EC50 [9]: 4.22 nM | Maximum fluorescence value [9]: 66700 | EC50 [10]: 0.439 nM | Maximum fluorescence value [10]: 6730

B4: B977707 (anti-FAP/4-1BB/CD40 trispecific antibody) (other)
heavy: QVQLQQSGVEVKKPGASVTVSCRASGYSFADHFIHWVRQAPGQGFQWMGWINPNRGVTHHAQDFQGRVAMTRDMSTDTVYMELTSLRSDDTAVYYCARDASLTARPYYFYGFDVWGQGTLVTVSS[human IgG1 constant region with changes not given here]GGGGSGGGGSQVQLVESGGGLVQPGGSLRLSCSASGFTFSSYAMSWVRQAPGKGLEWVSDINSGGESTFYEDSVKGRFTISRDNAKNTLYLQMNSLRAEDTAVYYCAKHPLTYTIATMNDYDYWGQGTLVTVSSGGGGSGGGGSQVQLVESGGGLVQPGGSLRLSCSASGFTFSSYAMSWVRQAPGKGLEWVSDINSGGESTFYEDSVKGRFTISRDNAKNTLYLQMNSLRAEDTAVYYCAKHPLTYTIATMNDYDYWGQGTLVTVSS
light: DIQMTQSPSSVSASVGDRVTITCRASQGISSWLAWYQQKPGKAPKLLIYAASSLQSGVPSRFSGSGSGTDFTLTISSLQPEDFATYYCQQANSFPPAFGQGTKVEIKRTVAAPSVFIFPPSDEQLKSGTASVVCLLNNFYPREAKVQWKVDNALQSGNSQESVTEQDSKDSTYSLSSTLTLSKADYEKHKVYACEVTHQGLSSPVTKSFNRGECGGGGSGGGGSEVQLVESGGGLVQPGGSLRLSCAASGFTFSRYGMKWVRQAPGKGLEWVSTINSHGDTTYYADSVKGRFTISRDNAKNSLYLQMNSLRAEDTAVYYCLRIDYSDYSSRGQGTLVTVSS
4-1BB/NF-κB luciferase reporter, CD40-crosslinked, Fold change in Emax [6]: 7.27 fold | 4-1BB/NF-κB luciferase reporter, FAP-crosslinked, EC50 [6]: 0.033 nM | 4-1BB/NF-κB luciferase reporter, FAP-crosslinked, Fold change in Emax [6]: 9.74 fold | 4-1BB/NF-κB luciferase reporter, uncrosslinked, Fold change in Emax [6]: 5.28 fold | CD40/NF-κB reporter (HEK-Blue CD40L), 4-1BB-crosslinked, EC50 [7]: 0.049 nM | CD40/NF-κB reporter (HEK-Blue CD40L), 4-1BB-crosslinked, Fold change in Emax [7]: 9.06 fold | CD40/NF-κB reporter (HEK-Blue CD40L), FAP-crosslinked, EC50 [7]: 0.019 nM | CD40/NF-κB reporter (HEK-Blue CD40L), FAP-crosslinked, Fold change in Emax [7]: 9.32 fold | CD40/NF-κB reporter (HEK-Blue CD40L), uncrosslinked, Fold change in Emax [7]: 7.78 fold | EC50 [8]: 2.4 nM | Maximum fluorescence value [8]: 113000 | EC50 [9]: 6.23 nM | Maximum fluorescence value [9]: 88100 | EC50 [10]: 0.093 nM | Maximum fluorescence value [10]: 6200

The next lines start with the values.

4-1BB/NF-κB luciferase reporter, CD40-crosslinked, EC50 [6]: 1.06 nM | 4-1BB/NF-κB luciferase reporter, CD40-crosslinked, Fold change in Emax [6]: 6.51 fold | 4-1BB/NF-κB luciferase reporter, FAP-crosslinked, EC50 [6]: 0.042 nM | 4-1BB/NF-κB luciferase reporter, FAP-crosslinked, Fold change in Emax [6]: 10.9 fold | 4-1BB/NF-κB luciferase reporter, uncrosslinked, Fold change in Emax [6]: 5.97 fold | CD40/NF-κB reporter (HEK-Blue CD40L), 4-1BB-crosslinked, EC50 [7]: 0.05 nM | CD40/NF-κB reporter (HEK-Blue CD40L), 4-1BB-crosslinked, Fold change in Emax [7]: 10.3 fold | CD40/NF-κB reporter (HEK-Blue CD40L), FAP-crosslinked, EC50 [7]: 0.016 nM | CD40/NF-κB reporter (HEK-Blue CD40L), FAP-crosslinked, Fold change in Emax [7]: 9.72 fold | CD40/NF-κB reporter (HEK-Blue CD40L), uncrosslinked, Fold change in Emax [7]: 6.97 fold | EC50 [8]: 3.38 nM | Maximum fluorescence value [8]: 147000 | EC50 [9]: 3.39 nM | Maximum fluorescence value [9]: 68900
B2: B785502 (anti-FAP/4-1BB/CD40 trispecific antibody) (other)
heavy: QVQLQQSGVEVKKPGASVTVSCRASGYSFADHFIHWVRQAPGQGFQWMGWINPNRGVTHHAQDFQGRVAMTRDMSTDTVYMELTSLRSDDTAVYYCARDASLTARPYYFYGFDVWGQGTLVTVSS[human IgG1 constant region with changes not given here]GGGGSGGGGSEVQLVESGGGLVQPGGSLRLSCAASGFTFSRYGMKWVRQAPGKGLEWVSTINSHGDTTYYADSVKGRFTISRDNAKNSLYLQMNSLRAEDTAVYYCLRIDYSDYSSRGQGTLVTVSSGGGGSGGGGSQVQLVESGGGLVQPGGSLRLSCSASGFTFSSYAMSWVRQAPGKGLEWVSDINSGGESTFYEDSVKGRFTISRDNAKNTLYLQMNSLRAEDTAVYYCAKHPLTFTIATMNDYDYWGQGTLVTVSS
light: B1 light
notes: Trispecific: Ab10 IgG1 (L234A, L235A); heavy chain C-terminus-(G4S)2-A297V3-(G4S)2-C5V2-YTI

4-1BB/NF-κB luciferase reporter, CD40-crosslinked, EC50 [6]: 0.026 nM | 4-1BB/NF-κB luciferase reporter, CD40-crosslinked, Fold change in Emax [6]: 8.48 fold | 4-1BB/NF-κB luciferase reporter, FAP-crosslinked, Fold change in Emax [6]: 6.93 fold | 4-1BB/NF-κB luciferase reporter, uncrosslinked, Fold change in Emax [6]: 7.2 fold | CD40/NF-κB reporter (HEK-Blue CD40L), 4-1BB-crosslinked, EC50 [7]: 0.025 nM | CD40/NF-κB reporter (HEK-Blue CD40L), 4-1BB-crosslinked, Fold change in Emax [7]: 10.8 fold | CD40/NF-κB reporter (HEK-Blue CD40L), FAP-crosslinked, Fold change in Emax [7]: 7.77 fold | CD40/NF-κB reporter (HEK-Blue CD40L), uncrosslinked, Fold change in Emax [7]: 7.26 fold | Maximum fluorescence value [8]: 74 | EC50 [9]: 4.21 nM | Maximum fluorescence value [9]: 63200 | EC50 [10]: 0.251 nM | Maximum fluorescence value [10]: 6280
B5: B785511 (anti-4-1BB/CD40 control molecule, C5V2-YTI-Fc-A297V3) (bispecific antibody, IgG1)
chain: QVQLVESGGGLVQPGGSLRLSCSASGFTFSSYAMSWVRQAPGKGLEWVSDINSGGESTFYEDSVKGRFTISRDNAKNTLYLQMNSLRAEDTAVYYCAKHPLTFTIATMNDYDYWGQGTLVTVSS[human IgG1 Fc with changes not given here]GGGGSGGGGSEVQLVESGGGLVQPGGSLRLSCAASGFTFSRYGMKWVRQAPGKGLEWVSTINSHGDTTYYADSVKGRFTISRDNAKNSLYLQMNSLRAEDTAVYYCLRIDYSDYSSRGQGTLVTVSS
notes: C5V2-YTI - IgG1 hinge - Fc (L234A, L235A) - (G4S)2 - A297V3; no FAP arm
